Assay results: the supplement of paper PMC10369915
Some of the results follow. Cut-off read from the data, not from the text of the source: active = 3.2 or more and inactive = the rest. Only a few entries rise above the background.

How the values were obtained:
Assay in all cases: enrichment score (SH2-bound / input frequency) (ratio); bacterial display of known human phosphotyrosine sites (pTyr-Var adds point mutants) read by sequencing; higher = stronger binding; tyrosines were phosphorylated by kinases first
Conditions in all cases: peptide library: pTyr-Var
[1] = molecular target: SHP2 C-SH2 domain E139D
[2] = molecular target: SHP2 C-SH2 domain wild-type
[3] = molecular target: SHP2 N-SH2 domain L43F
[4] = molecular target: SHP2 N-SH2 domain T42A
[5] = molecular target: SHP2 N-SH2 domain T52S
[6] = molecular target: SHP2 N-SH2 domain wild-type
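Note: displayed peptides selected on beads carrying the immobilized SH2 domain, with library peptides lacking any tyrosine serving as negative controls.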

| Binder | enrichment score [1] | enrichment score [2] | enrichment score [3] | enrichment score [4] | enrichment score [5] | enrichment score [6] |
| --- | --- | --- | --- | --- | --- | --- |
| TFLRTYTDAMQ [TSPAN7_Y124] | inactive: 0.727 | inactive: 0.938 | active: 4.32 | inactive: 0.915 | active: 5.02 | inactive: 1.48 |
| LGKGSYAKVRS [TSSK2_Y23_K27R] | inactive: 1.14 | inactive: 1.23 | inactive: 0.931 | inactive: 0.826 | inactive: 0.917 | inactive: 0.984 |
| IQSAKYDMAED [TTC21B_Y1213] | inactive: 0.621 | inactive: 0.529 | inactive: 0.686 | inactive: 0.5 | inactive: 0.611 | inactive: 0.77 |
| SQSAKYDMAED [TTC21B_Y1213_I1208S] | inactive: 0.556 | inactive: 0.423 | inactive: 0.456 | inactive: 0.449 | inactive: 0.363 | inactive: 0.163 |
| RGEEPYTKKAL [TTC21B_Y160_K157E] | inactive: 0.623 | inactive: 0.558 | inactive: 0.615 | inactive: 0.477 | inactive: 0.556 | inactive: 0.647 |
| SEDANYMRVSC [TTC3_Y1288_K1289M] | inactive: 0.64 | inactive: 0.686 | inactive: 0.55 | inactive: 0.583 | inactive: 0.682 | inactive: 0.81 |
| ESSKAYERDLS [TTC37_Y1074_A1077D] | inactive: 0.371 | inactive: 0.542 | inactive: 0.451 | inactive: 0.391 | inactive: 0.556 | inactive: 0.611 |
| GRRGQYVMLSE [TTC7A_Y396] | inactive: 0.193 | inactive: 0.232 | inactive: 0.297 | inactive: 0.225 | inactive: 0.261 | inactive: 0.319 |
| GRRGQYVMPSE [TTC7A_Y396_L399P] | inactive: 0.434 | inactive: 0.412 | inactive: 0.363 | inactive: 0.265 | inactive: 0.243 | inactive: 0.353 |
| DSKIRYLSADS [TTF1_Y476_E473K] | inactive: 0.553 | inactive: 0.953 | inactive: 0.58 | inactive: 0.462 | inactive: 0.415 | inactive: 0.775 |
| EHLNRYISDTF [TTLL10_Y446] | inactive: 0.982 | inactive: 0.797 | inactive: 1.01 | inactive: 0.638 | inactive: 0.742 | inactive: 0.862 |
| AEVIWYKGDEE [TTN_Y13423] | inactive: 0.805 | inactive: 0.58 | inactive: 0.757 | inactive: 0.667 | inactive: 0.797 | inactive: 0.783 |
| TEVIWYKGDEE [TTN_Y13423_A13418T] | inactive: 0.96 | inactive: 0.462 | inactive: 0.759 | inactive: 0.906 | inactive: 0.788 | inactive: 0.53 |
| IETGRYEILTE [TTN_Y13435] | inactive: 0.686 | inactive: 0.958 | inactive: 0.636 | inactive: 0.82 | inactive: 0.762 | inactive: 0.87 |
| TETGRYEILTE [TTN_Y13435_I13430T] | inactive: 0.647 | inactive: 0.78 | inactive: 0.772 | inactive: 0.752 | inactive: 0.872 | inactive: 0.915 |
| LANNEYYFQVC [TTN_Y18997_R19000Q] | inactive: 0.907 | inactive: 1.39 | inactive: 0.809 | inactive: 1.22 | inactive: 0.854 | inactive: 1.17 |
| LANNEYFFQVC [TTN_Y18997_R19000Q_YF] | inactive: 0.722 | inactive: 1.09 | inactive: 0.911 | inactive: 0.813 | inactive: 0.884 | inactive: 1.67 |
| LANNEYFFRVC [TTN_Y18997_YF] | inactive: 0.987 | inactive: 1.15 | inactive: 1.16 | inactive: 0.851 | inactive: 0.741 | inactive: 0.926 |
| ANNEYYFRVCA [TTN_Y18998] | inactive: 0.709 | inactive: 0.731 | inactive: 0.614 | inactive: 0.76 | inactive: 0.715 | inactive: 1.03 |
